Measurements reported in PubChem BioAssay AID504832 (National Center for Advancing Translational Sciences (NCATS), 2011).
About 18,000 (5.8%) of roughly 310,000 compounds were called active. Inconclusive means that the source gave no clear call. Such entries were picked first, then a sample of the others. Calls follow the shape of the dose curve; as a rule, active = well fitted inhibition curve with a large enough effect; inconclusive = small, poorly fitted or top-dose-only effect, or another doubt; inactive = no such curve, though single readings can be large or run the other way. No potency is given beside an inconclusive call; the fits are too rough.

experiment: Primary qHTS for delayed death inhibitors of the malarial parasite plastid, 48 hour incubation; conditions: P. falciparum luciferase growth in erythrocytes; series mostly up to 28.7 µM
Summary of the method: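 In quantitative HTS format, infected erythrocytes bearing luciferase-reporter parasites were treated for a single generation at 37 C. Luminescence after adding detection reagent served as the growth measure.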
% is scaled to controls: 0 for no effect and ±100 for the full control effect; potency is read from the fitted curve at half-maximal effect; tags tell the direction and shape of the fitted curve.

Row | SMILES | Potency | activity change, negative = inhibition
1 | CN(C)/C=C/C1=CC(=O)CC(C)(C)C1 | inconclusive [inhibitor, single point] | –
2 | CNC(=O)C(=O)NCCc1ccc(Cl)cc1 | inactive | –
3 | COc1ccc(CNCC(O)(c2ccccc2)c2ccc(F)cc2)cc1OC (stereo not given) | active: 7.38 µM | –
4 | COc1cccc(/C=N/NC(=O)Cn2nc([N+](=O)[O-])cc2C)c1 | inconclusive [inhibitor, single point] | –
5 | CCOC(=O)c1[nH]c(C)c(C(=O)N(C)C)c1C | inactive | –
6 | CN(C)c1nc(NN)nc(Nc2ccc(F)cc2)n1 | inconclusive [inhibitor, partial curve, poor fit] | –
7 | Cc1c(C(=O)N2CCN(Cc3ccccc3)CC2)sc2ncnc(N3CCOCC3)c12 | inconclusive [inhibitor, single point] | –
8 | Cc1ccc(O)c(-c2[nH]ncc2C(=O)c2ccc(Br)cc2)c1 | inconclusive [inhibitor, partial curve, poor fit] | –
9 | Cc1nn(CC(=O)c2ccccc2Cl)c(C)c1[N+](=O)[O-] | inactive | –
10 | C/C=C(/C)C(=O)O[C@@H]1[C@H](OC(C)=O)c2c(ccc3ccc(=O)oc23)OC1(C)C | inconclusive [inhibitor, single point] | –
11 | CC(=O)c1ccc(N2CCN(C(=S)NCCCN(C)C)CC2)cc1 | inconclusive [inhibitor, single point] | –
12 | CCOc1ccc2nc(N/C(N)=N/C(=S)Nc3ccc(C)c(C)c3)nc(C)c2c1 | active: 6.57 µM | –
13 | COc1ccc(/C(O)=C2/C(=O)C(=O)N(Cc3cccnc3)C2c2ccco2)cc1OC (stereo not given) | inactive | –
14 | CC(C)N(CCCNC(=O)Cn1c(=O)c2cccn2c2ccc(F)cc21)Cc1ccccc1 | inconclusive [inhibitor, single point] | –
15 | CCCCn1c(-c2ccc(Br)cc2F)nc2c1c(=O)[nH]c(=O)n2CC(C)C | active: 10.4 µM | –
16 | Cc1cc(C)nc(NS(=O)(=O)c2ccc(NC(=O)c3ccc(O)cc3O)cc2)n1 | inactive | –
17 | O=C1N=C2SCCN2/C1=C\c1ccccc1Cl | inactive | –
18 | COc1ccc(OC)c(Nc2nc(C3CC3)nc3c2nnn3Cc2ccccc2)c1 | inconclusive [inhibitor, partial curve] | –
19 | Cc1ccc(S(=O)(=O)NC(=O)NC(C)c2ccc(F)cc2)cc1 (stereo not given) | inactive | –
20 | CC(C)CNc1nnnc2c1sc1nc(N3CCOCC3)c3c(c12)CCCC3 | active: 1.65 µM | –
21 | CCOc1ccc2ccccc2c1/C=N/NC(=O)c1ccncc1 | inactive | –
22 | COc1ccc(CCNC(=O)c2cc(-c3ccccn3)nc3ccccc23)cc1 | inconclusive [inhibitor, single point] | –
23 | O=C(NC1=NCCS1)c1cc(-c2cccc(Br)c2)nc2ccccc12 | inconclusive [inhibitor, single point] | –
24 | COc1ccccc1CNC(=O)Cc1csc(NC(=O)Nc2ccccc2OC)n1 | inconclusive [inhibitor, partial curve] | –
25 | CCOc1ccc(NC(=O)CN(C)Cc2cc(=O)n3c(-c4ccccc4)csc3n2)cc1OCC | inconclusive [inhibitor, partial curve] | –

Row | SMILES | Potency | activity change, negative = inhibition
26 | Cn1nnnc1Sc1ncnc2scc(-c3cccc(F)c3)c12 | active: 4.65 µM | –
27 | CCCCCCCNC(=O)c1ccc(N2CCC3(CC2)OCCO3)c([N+](=O)[O-])c1 | inconclusive [inhibitor, single point] | –
28 | O=C(COc1c(F)c(F)c(C(F)(F)F)c(F)c1F)Nc1ccc(N2CCOCC2)c(Cl)c1 | inconclusive [inhibitor, partial curve, poor fit] | –
29 | COc1ccc(C(=O)NCc2nnc(SCC(=O)N3CCCCC3)o2)cc1 | inconclusive [inhibitor, partial curve, poor fit] | –
30 | CC(NC(=O)C1CCN(C(=O)[C@@H]2Cc3ccccc3CN2)CC1)c1ccccc1 (stereo not given in full) | inactive | –
31 | O=C(NC[C@@H]1CCCO1)c1cccc2c1C(=O)c1ccc(Cl)cc1S2(=O)=O | inactive | –
32 | CC(C)Nc1nc(C#N)nc(NC(C)C)n1 | inconclusive [inhibitor, full curve, poor fit] | –
33 | COc1ccc(CCNS(=O)(=O)c2ccc3c(c2)NC(=O)CCS3)cc1OC | inconclusive [inhibitor, single point] | –
34 | CCCC1=[N+](CC(C)=O)CCn2c(C)ccc21 | inconclusive [inhibitor, single point] | –
35 | S=C(Nc1ccc(Cl)cc1)N1CCN(Cc2ccccc2)CC1 | inactive | –
36 | COc1ccccc1NC(=O)CCCc1nnc2n(C)c(=O)c3sccc3n12 | inactive | –
37 | CCC(Cc1c(I)cc(I)c(O)c1I)C(=O)O (stereo not given) | inactive | –
38 | Oc1ccc(-c2csc(NCc3ccco3)n2)cc1 | inactive | –
39 | O=C(Nc1ccc2snnc2c1)N1CCSCC1 | inactive | –
40 | O=C1C2CCCN2c2ccc(S(=O)(=O)N3CCOCC3)cc2N1Cc1ccccc1F (stereo not given) | inconclusive [inhibitor, partial curve] | –
41 | CC1CN(C(=O)c2ccc(-c3cccc(C(F)(F)F)c3)o2)CC(C)O1 (stereo not given) | active: 13.1 µM | –
42 | CCn1c(-c2ccccc2)c[nH]c1=S | inactive | –
43 | CCOc1ccc(N(C(C)C(=O)N2CCOCC2)S(C)(=O)=O)cc1 (stereo not given) | inactive | –
44 | N#Cc1c(Cl)nsc1NC(=O)c1ccccc1 | inconclusive [inhibitor, partial curve, poor fit] | –
45 | CC(=O)N1CCN(C(=O)c2ccc(Cl)c(S(=O)(=O)N3CCCCCC3)c2)CC1 | inconclusive [inhibitor, single point] | –
46 | O=C(NCCCN1CCOCC1)c1ccc2nc(Cc3cccc(Cl)c3)oc2c1 | inactive | –
47 | CC(C)c1ccc(NC(=O)C(=O)C2C(=O)Nc3ccccc32)cc1 (stereo not given) | inactive | –
48 | COC(=O)c1cc(Br)ccc1NC(=O)CSCc1c(C)noc1C | inconclusive [inhibitor, single point] | –
49 | CCN(CC)CCOC(=O)c1c(C)oc2ccc(OC)cc12 | inactive | –
50 | COc1ccc(-n2c(=O)c3ccccc3n(CC(=O)Nc3ccccc3OC)c2=O)cc1 | inconclusive [inhibitor, single point] | –

Row | SMILES | Potency | activity change, negative = inhibition
51 | CN(C)CCCN(C(=O)c1cc2cc([N+](=O)[O-])ccc2s1)c1nc2cc3c(cc2s1)OCCO3 | inconclusive [inhibitor, partial curve, poor fit] | –
52 | COC(=O)c1ccc(NC(=O)c2ccc(CN3CCOCC3)cc2)cc1 | inconclusive [inhibitor, partial curve, poor fit] | –
53 | N#CCc1ccc(NC(=O)c2cc(S(=O)(=O)N3CCOCC3)ccc2Cl)cc1 | inconclusive [inhibitor, partial curve, poor fit] | –
54 | COc1ccc(CCNCc2cc3ccc(C)cc3[nH]c2=O)cc1OC | inactive | –
55 | O=C(Cc1ccccc1)c1c[nH]c(C(=O)NC2CCCC2)c1 | inconclusive [inhibitor, single point] | –
56 | CN1CCN(c2ccccc2NC(=O)c2cccs2)CC1 | inactive | –
57 | CN(CC(=O)Nc1ccc(F)cc1)C(=O)COC(=O)CNC(=O)c1ccc(Cl)cc1Cl | inactive | –
58 | Cc1ccc(C(=O)OCC(=O)N(CC(C)C)c2c(N)n(Cc3ccccc3)c(=O)[nH]c2=O)cc1[N+](=O)[O-] | inactive | –
59 | COc1ccc(Cn2cnc3sccc3c2=O)cc1 | inconclusive [inhibitor, single point] | –
60 | CN(c1ccccc1)c1nc(N)c([N+](=O)[O-])c(NCc2ccco2)n1 | inconclusive [inhibitor, partial curve] | –
61 | O=C(Nc1cccc(S(=O)(=O)N2CCCCC2)c1)c1ccc2ncsc2c1 | inactive | –
62 | CSCCC(NC(=O)COc1ccccc1)C(=O)NC1CCC(C)CC1 (stereo not given) | inactive | –
63 | CCN(CC)CCCCNc1ncc2cc(-c3cc(OC)cc(OC)c3)c(NC(=O)NC(C)(C)C)nc2n1 | inconclusive [inhibitor, full curve] | –
64 | Cc1ccc(Cn2nc(C)cc2C(=O)Nc2ccc(Cl)cc2)cc1 | inconclusive [inhibitor, partial curve, poor fit] | –
65 | CCc1ccc2c(CN(C)Cc3ccccc3OC)cc(=O)oc2c1 | – | inactive: -2.39% [at 0.00184 µM]
66 | CCOc1ccc(Cl)cc1S(=O)(=O)NC1CCCC1 | inconclusive [inhibitor, partial curve, poor fit] | –
67 | CCOC(=O)C1CN(S(=O)(=O)c2ccc(C)cc2)C1 | inactive | –
68 | CCCCn1c(N)c(N(CC(C)C)C(=O)C2=NN(c3ccccc3)C(=O)CC2)c(=O)[nH]c1=O | inconclusive [inhibitor, partial curve, poor fit] | –
69 | CNCc1ccccc1Sc1cc(O)ccc1O | inactive | –
70 | CN(C(=O)c1ccc(NC(=O)Cc2ccc(NC(=O)C3CCN(C(=O)c4ccccc4)CC3)cc2)cc1)C1CC1 | inconclusive [inhibitor, partial curve] | –
71 | Cc1cccc2c(C(=O)N3CCCCC3)cc(-c3ccccc3)nc12 | active: 9.28 µM | –
72 | COc1cc(OC)cc(-c2cc3nc(C)c(CCC(=O)NCc4ccccc4)c(C)n3n2)c1 | inconclusive [inhibitor, partial curve] | –
73 | CCOC(=O)CC(=O)CSc1nc2sc(C)cc2c(=O)n1Cc1ccco1 | active: 4.65 µM | –
74 | COc1ccc(S(=O)(=O)NCC(c2ccc(F)cc2)N2CCOCC2)cc1Br (stereo not given) | inactive | –
75 | COc1ccc(CN(C)CCc2ccccn2)cc1OC | inactive | –
